Assay results taken from the RNAGym collection of RNA variant scans (doi:10.7554/elife.90254).
The source gives no read counts; variants with many changes may rest on few reads.

B1: LINE1-full (parent)
chain: UACGUAGGUGGUUUUCCCCUGAUAGUGCUAAGGGGGCCUGGAAGUUUGGACUGGGCAGAGCUCAACACAGCGUGGCAAAGUGGCUGUGGCUAGACUGCCUCUCUGGAUUCCUCGUCACUCAGCAGGGCAUCUCUGAGAGAAAUGCC

Variants of: B1
Experiment: self-cleavage, relative activity (ratio to wild type); higher = more cleavage; in vitro, sequencing; the parent is a self-cleaving ribozyme

Variant	self-cleavage
U13C U20A A69U U73C U100C	0.51
U13A A57U A79G A138G	0.04
U13C U62A A142G	0.17
U13C U52C A57G U62C G106C	0
U13C C37U U73C U130G	1.84
U13C G72U A79G U104C	0.32
U13C U73A C99U U104C	1.73
U13C A59G A69G	0
U13A U39A C71U A142G	0.62
U13A A92U U115C	0.7
U13C U14C A142G G144A	1.39
U13C U46C A117U	1.1
U13C C95G A129G	0.1
U13A G32A U45C	1.31
U13C A30G A79G U96C U132A	0
U13C A65G U112C	0.2
U13C U73C A78C	0.9
U13C U15A C123U	2.51
U13C G72U U134G	0.98
U13C A57G G60A U102C	0.17
U13C U14A C113U	1.07
U13C U20A U26C U104A	1.13
U13C G74A U130C A141G	1.06
U13C A78G U115A A138G A141G	1.15

Variant	self-cleavage
U13A U100C U143C	1.22
U13C C19U G34U U62C	0.2
U13C A94G A121G C146U	0
U13A U45C U47C U85C G122U	0.19
U13C G80U A136G	1.62
U13C U14C U26C U46A U119G	0.84
U13C U14C A117U	1.67
U13C U15C G34U A50G	1.19
U13C A57U A67G	0.44
U13C U39A U73A	1.31
U13C A67G A141U	1.15
U13C A24U G36A A78G U100G	0.33
U13C A22G U108A	1.14
U13C A78G U96C	0
U13A U20C U26C A57U G105U U119C	0.11
U13C A31U U62C A77G U112C	0
U13A U81A U102A	0.89
U13C A31U A92G	0.47
U13C A22G A129G	0
U13C A57G C146U	0.82
U13C U14C U85A U119C	0
U13A U100C U108C	1.35
U13C G34U U45C A67G U73C	1.15
U13C U39C A92G	0

Variant	self-cleavage
U13C A43G U96A U119A	0.19
U13C A22U G126A U130A	1.51
U13C G33A A117G A138G	0.72
U13C U45A U52C C84A	0.13
U13C A57U G114A A142U	0.22
U13C A22G U143C	2
U13C U26C A67G C98U	0
U13C A42G U62C A142G	0.07
U13A U23C A42G	0.61
U13C A69U U87A	0.05
U13C U23C A57U A117G C131U A136G	0.24
U13C A31U G82A U134C	1.28
U13C U52C A117U A140G	0.88
U13C U15A U96C C113U	0.26
U13C A94U U108C	0.39
U13C A69G U81C	0
U13C U20C U52C A141G	1.47
U13A A117C A124G	0.97
U13C A78G A136G	2.33
U13C A69G U73C	0
U13C A22U A42G U81C U112A C113U A138G	1.67
U13A A77G C118U U143C	1.75
U13C A30U A140G	0.36
U13C U15C U26A A50U U52C	1.12

Variant	self-cleavage
U13C U26A G41A	0.99
U13C A24G A77G U134A	0.77
U13C U52A A78C A129U A138G	1.35
U13C G32U A65U U134G	0.15
U13A U85A A107C A138G A141G	0.11
U13C A94G U134C	0.16
U13C U14C U47C	1.36
U13C G75A C98A U115A A117G	0.11
U13C U62C G89A U96C	0.04
U13C C19U U143A	1.04
U13C U46C A59G	0.09
U13A U14G A24G A57U U62C A129U	0
U13C U45C U115C U119A	1.8
U13C G35U G105U	1.23
U13C A42G A77U U115C	2.76
U13C U14C U143A	2.3
U13C U46C A64U	0.54
U13A A107G U132C	1.53
U13A U26C A43G A57U	0.26
U13A U26A G40A A92G C128U U143A	0.06
U13C A117C U130C	2
U13C G106A A140G	1.62
U13C U14C A24U U85A	0.5
U13C A31U A107U U119C A142G	0.92

Variant	self-cleavage
U13C U62C A69G U109A	0.19
U13C U29C A124G G125A	0.9
U13C U46C U143A	1.26
U13C A78U U100A	1.52
U13C A22G U47A	1.36
U13C U23C U96C A107G A140G	0
U13C A42G A78G C110A	1.55
U13C A79C U96A U112A A129G	0.06
U13C A69U A140U	0.28
U13C U29C U47A U109A	1.69
U13C U20C C56U U85C U100C	0.1
U13C A65C A117U A136G	0.13
U13C A57U U130C	0.23
U13C U26A C63U U108C U115C U134A A136G	0.34
U13C U15C G25A G35C C56U U109C U132C U143A	0.1
U13C U52C A64G	0.56
U13C A78C U87A U100C U119C	1.02
U13C A92G G106U	0.1
U13A U39C G97A	0.04
U13C U29C C110U U132C	1.21
U13C U14C U23G A124U	0.92
U13C G74A A107G	0.33
U13C G126A A141G	1.05
U13C A69G U100C	0

Variant	self-cleavage
U13C A77G U91C A121G	0
U13C A30G A129G A142G	1.53
U13C U14C G32U U87C A140G	0.3
U13C A24G A78U	2.45
U13C G36C U96A U115C A121U	0.05
U13C U45C G105C	2.01
U13A U62C A78G A136G	0.04
U13C C17A U108A U132A	0.9
U13C U26A U100G A141G	0.67
U13C A59G A142U	0.19
U13C A59G A142C	0.08
U13C A77U U134C U143A	0.51
U13A U20A A124G	0.64
U13C U47A U52C A129U	0.88
U13A U46C U102C	1.87
U13C U47A A142U	1.22
U13C C28U A57U	0.11
U13C U14C A30G	0.88
U13C A78G C110A U119C	1.06
U13C A30U U62C U143C	0.2
U13C U23C U62C C63U A94G	0.18
U13C U45A A64U G106A U115C	0.43
U13A G25U A57U U87C U119A A124G	0.14
U13A A92U U130C	0.29

Variant	self-cleavage
U13C G72A U100C A140U	0.15
U13C A31G G49A U100C	0.97
U13C A64G U81C U130C	0.84
U13A A94G A121G A138G	0
U13A U14A A43G A136U	0.89
U13A U46C G122U	1.14
U13A U29A G75U	0.7
U13C A24G C120A U134C U143C	1.39
U13C A92U A136G A142G	1.38
U13A A92U A136U	0.36
U13A U47C A94U A107G	0.28
U13C C90U U112C U143C	0.05
U13C A22U U47G A77C A79G	1.23
U13C A79G U132C	0.81
U13A U29C U39C U45C	2.87
U13C A43G U108C A140G	1.41
U13C A59G U104A A141G	0.22
U13C U20A U47A U132C C133U	0.96
U13C A69G U91A U143A	0.39
U13C U39A C120U A129G	1.41
U13C U45C U87C	0.2
U13C A22G U132C A140G	0.73
U13C G25U U102C U143C	0.86
